# From paper PMC5700166
# The entries are a selection whose mix differs from that of the whole data set. The list includes weakly bound sequences.
# Experiments:
# Experiment in all cases: protein-binding microarray (PBM)
# Conditions in all cases: PBM: ~300 nM protein, 6 mM HEPES pH 7.8, 80 mM KCl, 0.5 mM EDTA, 0.5 mM EGTA, 6% glycerol, 35 ng/ul poly-dIdC, 1% milk, 1 h, room temperature; Ap Aiptasia and Nv Nematostella (sea anemones) / Co Capsaspora / Aq Amphimedon (sponge) / Dm Drosophila / Hu human; RHD is the Rel homology domain; high values mean tight binding; most listed sequences are background and not binding sites; double strand, one strand shown
# GST-Ap-NF-kB RHD = target: T1, GST-Ap-NF-kB RHD (UniProt A0A913YAJ5)
# T1 sequence: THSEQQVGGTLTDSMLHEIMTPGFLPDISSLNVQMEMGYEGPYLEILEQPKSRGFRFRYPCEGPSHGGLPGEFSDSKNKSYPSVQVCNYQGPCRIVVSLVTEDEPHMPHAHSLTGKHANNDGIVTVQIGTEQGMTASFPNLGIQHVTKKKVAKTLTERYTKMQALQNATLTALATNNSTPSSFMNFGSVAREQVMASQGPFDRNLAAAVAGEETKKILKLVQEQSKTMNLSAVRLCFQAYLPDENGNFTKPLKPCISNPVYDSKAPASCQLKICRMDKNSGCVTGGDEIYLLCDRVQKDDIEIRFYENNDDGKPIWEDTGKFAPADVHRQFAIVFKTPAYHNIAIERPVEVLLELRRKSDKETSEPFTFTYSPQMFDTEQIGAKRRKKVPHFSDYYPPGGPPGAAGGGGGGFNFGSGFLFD
# [1] = target: T2, GST-Nv-NF-kB (Cys allele) (UniProt E5G601)
# T2 sequence: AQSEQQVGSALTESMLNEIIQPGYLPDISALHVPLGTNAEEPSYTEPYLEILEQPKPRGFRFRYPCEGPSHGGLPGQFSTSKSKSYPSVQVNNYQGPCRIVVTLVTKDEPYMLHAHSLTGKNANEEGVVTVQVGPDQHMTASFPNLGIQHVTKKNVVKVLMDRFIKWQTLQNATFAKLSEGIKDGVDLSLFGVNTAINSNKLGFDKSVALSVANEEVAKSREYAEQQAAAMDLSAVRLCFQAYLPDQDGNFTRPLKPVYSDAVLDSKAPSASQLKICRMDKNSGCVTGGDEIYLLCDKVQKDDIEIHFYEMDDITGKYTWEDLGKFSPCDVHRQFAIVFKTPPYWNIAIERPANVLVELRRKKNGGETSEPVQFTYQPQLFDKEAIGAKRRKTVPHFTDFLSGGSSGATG
# GST-Co-NF-kB = target: T3, GST-Co-NF-kB (UniProt F1ARL5)
# T3 sequence: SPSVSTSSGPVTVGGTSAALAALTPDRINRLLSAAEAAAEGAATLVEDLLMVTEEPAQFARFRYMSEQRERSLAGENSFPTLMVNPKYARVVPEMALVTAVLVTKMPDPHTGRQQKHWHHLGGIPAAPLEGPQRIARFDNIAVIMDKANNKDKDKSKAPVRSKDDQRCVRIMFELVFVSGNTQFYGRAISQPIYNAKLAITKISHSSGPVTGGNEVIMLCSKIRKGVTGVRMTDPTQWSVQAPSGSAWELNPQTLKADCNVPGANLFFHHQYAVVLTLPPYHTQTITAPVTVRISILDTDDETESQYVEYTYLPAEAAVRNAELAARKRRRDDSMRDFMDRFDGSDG
# GST-Dm-Relish = target: T4, GST-Dm-Relish (UniProt Q94527)
# T4 sequence: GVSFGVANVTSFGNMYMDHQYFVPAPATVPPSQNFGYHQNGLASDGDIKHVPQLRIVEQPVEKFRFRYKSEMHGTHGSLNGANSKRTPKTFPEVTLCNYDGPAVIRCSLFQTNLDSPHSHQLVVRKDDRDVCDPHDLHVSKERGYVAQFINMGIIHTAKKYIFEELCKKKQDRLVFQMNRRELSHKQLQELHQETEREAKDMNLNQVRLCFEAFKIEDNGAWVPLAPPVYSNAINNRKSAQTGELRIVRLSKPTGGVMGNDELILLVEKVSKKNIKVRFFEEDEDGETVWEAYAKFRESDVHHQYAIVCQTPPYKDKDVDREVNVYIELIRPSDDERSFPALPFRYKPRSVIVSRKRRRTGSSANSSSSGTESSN
# GST-Aq-NF-kB = target: T5, GST-Aq-NF-kB (UniProt A9Y5G7)
# T5 sequence: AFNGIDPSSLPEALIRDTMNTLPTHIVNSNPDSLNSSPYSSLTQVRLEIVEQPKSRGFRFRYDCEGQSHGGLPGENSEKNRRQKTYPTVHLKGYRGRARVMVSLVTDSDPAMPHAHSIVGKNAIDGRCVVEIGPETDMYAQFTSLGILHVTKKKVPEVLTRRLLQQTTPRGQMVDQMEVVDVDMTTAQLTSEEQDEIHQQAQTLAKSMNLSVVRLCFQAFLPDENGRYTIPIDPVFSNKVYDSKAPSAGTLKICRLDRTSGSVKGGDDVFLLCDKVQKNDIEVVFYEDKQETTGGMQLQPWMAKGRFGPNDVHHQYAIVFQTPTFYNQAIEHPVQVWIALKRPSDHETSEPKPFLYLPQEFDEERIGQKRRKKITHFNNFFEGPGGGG
Sequence,binding signal (GST-Ap-NF-kB RHD) [z-score],binding signal [1] [z-score],binding signal (GST-Co-NF-kB) [z-score],binding signal (GST-Dm-Relish) [z-score],binding signal (GST-Aq-NF-kB) [z-score]
CCGATTAACATCACGGTGTGGGTTGATGTTAATCGGGTCTTGATTCGCTTGACGCTGCTG,0.591,-0.466,1.37,0.0597,0.0136
CCGATTAACATCAGGTATTTTTATGATGTTAATCGGGTCTTGATTCGCTTGACGCTGCTG,1.27,2.01,0.3,3.8,2.77
CCGATTAACATCAATTCTTTCACTGATGTTAATCGGGTCTTGATTCGCTTGACGCTGCTG,-0.301,0.0156,-0.0258,-0.0991,-0.243
CCGATTAACATCAAGGAGATTCCTGATGTTAATCGGGTCTTGATTCGCTTGACGCTGCTG,-0.0544,-0.226,-0.118,0.00713,1.73
CCGATTAACATCAACCTGATGGATGATGTTAATCGGGTCTTGATTCGCTTGACGCTGCTG,-0.126,0.401,-0.882,-0.938,-0.442
CCGATTAACATCACGGAATCTCCTGATGTTAATCGGGTCTTGATTCGCTTGACGCTGCTG,-0.21,0.0139,0.201,-0.0342,2.17
CCGATTAACATCAAGCCGGCAATTGATGTTAATCGGGTCTTGATTCGCTTGACGCTGCTG,-0.203,0.257,-1.07,-0.985,-0.746
CCGATTAACATCAAGTCTAGGGATGATGTTAATCGGGTCTTGATTCGCTTGACGCTGCTG,0.956,-0.218,0.00917,-0.915,0.291
CCGATTAACATCAATAATTTGTATGATGTTAATCGGGTCTTGATTCGCTTGACGCTGCTG,-0.881,-0.462,0.403,-0.143,-0.353
CCGATTAACATCAGGCATTTCCATGATGTTAATCGGGTCTTGATTCGCTTGACGCTGCTG,0.349,-0.348,-0.265,0.053,1.13
CCGATTAACATCAGTGTCATCCCTGATGTTAATCGGGTCTTGATTCGCTTGACGCTGCTG,0.826,-0.511,0.227,-0.651,0.203
CCGATTAACATCAATGAGACTTATGATGTTAATCGGGTCTTGATTCGCTTGACGCTGCTG,-0.646,-0.0816,-0.355,-0.41,-0.507
CCGATTAACATCAGAACGGATAATGATGTTAATCGGGTCTTGATTCGCTTGACGCTGCTG,-0.15,0.0491,0.274,-0.495,-0.287
CCGATTAACATCAGGAATTTCACTGATGTTAATCGGGTCTTGATTCGCTTGACGCTGCTG,0.173,-0.188,0.44,0.486,0.723
CCGATTAACATCACTTAATGCTATGATGTTAATCGGGTCTTGATTCGCTTGACGCTGCTG,-0.579,-0.303,0.349,-0.0254,-0.533
CCGATTAACATCATCGAGCATGCTGATGTTAATCGGGTCTTGATTCGCTTGACGCTGCTG,-0.372,-0.614,-1.8,-0.855,-0.515
CCGATTAACATCAGAATTTTCCATGATGTTAATCGGGTCTTGATTCGCTTGACGCTGCTG,0.104,-0.155,0.515,-0.00679,0.625
CCGATTAACATCAGCGCCTGTGCTGATGTTAATCGGGTCTTGATTCGCTTGACGCTGCTG,-1.03,-1.15,-1.18,-1.43,-0.644
CCGATTAACATCATGCAAGATTGTGATGTTAATCGGGTCTTGATTCGCTTGACGCTGCTG,-0.00256,-0.212,-0.0589,0.506,-0.407
CCGATTAACATCAATGGAATTTCTGATGTTAATCGGGTCTTGATTCGCTTGACGCTGCTG,-0.0503,0.259,-0.447,0.515,0.75
CCGATTAACATCATGATGTTCCGTGATGTTAATCGGGTCTTGATTCGCTTGACGCTGCTG,-0.392,-0.0775,0.00982,-0.138,-0.0225
CCGATTAACATCACTTCAGCGGCTGATGTTAATCGGGTCTTGATTCGCTTGACGCTGCTG,-0.0357,-1.06,-0.527,0.181,-0.369
CCGATTAACATCAACCACAGATGTGATGTTAATCGGGTCTTGATTCGCTTGACGCTGCTG,-0.335,-0.299,-0.0378,0.558,-0.239
CCGATTAACATCAGGAAATTTAATGATGTTAATCGGGTCTTGATTCGCTTGACGCTGCTG,0.119,0.233,0.522,0.667,0.92
CCGATTAACATCATGCGCTTTGATGATGTTAATCGGGTCTTGATTCGCTTGACGCTGCTG,-0.512,0.122,-0.463,-0.864,-0.57
CCGATTAACATCACGAACTTTCCTGATGTTAATCGGGTCTTGATTCGCTTGACGCTGCTG,-0.351,-0.669,-0.215,-0.0831,0.75
CCGATTAACATCAGGAACTCTCCTGATGTTAATCGGGTCTTGATTCGCTTGACGCTGCTG,-0.722,-0.587,-0.616,-0.807,-0.0132
CCGATTAACATCAGTGAGCGCCATGATGTTAATCGGGTCTTGATTCGCTTGACGCTGCTG,0.313,0.0699,-0.108,-0.115,-0.256
